Patent US8962626B2, “Thienopyridazine compounds, their preparations, pharmaceutical compositions and uses” (Zhejiang Medicine Co., Ltd. Xinchang Pharmaceutical Factory, priority 2008, dated 2015)
The name of at least one read-out is uncertain.

Tested on: transplanted tumor of human colon cancer HT-99
Test: Efficacy on transplanted tumor of human colon cancer HT-99 on nude mice
Format: in vivo
Settings: compounds 60 mg/kg ip d0,1, GCT 20, ADR 4 mg/kg ip, combinations GCT or CPT-11 20 / ADR 4 ip + compound 25 mg/kg iv; for RTV (relative tumor volume) X ± SD / T/C: 17th day; for TV dn: dn = 17th day after administration

Compound | RTV (relative tumor volume) X ± SD | T/C [%] | TV dn [mm^3]
NC(=O)c1nnc(CC2CCNC2)c2cc(-c3ccc(Cl)cc3)sc12 (single isomer, unassigned) [Compound XXX, 2-(4-chlorophenyl)-4-(S-3-pyrrolidinemethyl)-thieno[2,3-d]pyridazinyl-7-formamide] | 3.78 ± 1.09 | 57.0 | 482 ± 83
NC(=O)c1nnc(CC2CCNC2)c2cc(-c3ccc(Cl)cc3)sc12 (single isomer, unassigned) [Compound XXXI, 2-(4-chlorophenyl)-4-(R-3-pyrrolidinemethyl)-thieno[2,3-d]pyridazinyl-7-formamide] | 5.36 ± 1.94 | 80.8 | 785 ± 300
NC(=O)c1nnc(CC2CCCOC2)c2cc(-c3ccc(Cl)cc3)sc12 (stereo not drawn) [V, 2-(4-chlorophenyl)-4-(3-tetrahydropyranmethyl)-thieno[2,3-d]pyridazinyl-7-formamide] | 6.40 ± 0 | 96.5 | 910 ± 0
NC(=O)c1nnc(CC2CCNCC2)c2cc(-c3ccc(Cl)cc3)sc12 [XI, 2-(4-chlorophenyl)-4-(4-piperidinemethyl)-thieno[2,3-d]pyridazinyl-7-formamide] | 7.52 ± 0.26 | 113.4 | 1224 ± 440
CN(C)C(=O)c1nnc(CC2CCCOC2)c2cc(-c3ccc(Cl)cc3)sc12 (stereo not drawn) [XIX, 2-(4-chlorophenyl)-4-(3-tetrahydropyranmethyl)-thieno[2,3-d]pyridazinyl-7-N,N-dimethyl formamide] | 4.53 ± 0.82 | 68.3 | 663 ± 86
NC(=O)c1nnc(CC2CCNC2)c2cc(-c3ccc(Br)cc3)sc12 (stereo not drawn) [XXII, 2-(4-bromophenyl)-4-(3-pyrrolidinemethyl)-thieno[2,3-d]pyridazinyl-7-formamide] | 4.69 ± 0.71 | 70.7 | 714 ± 127
